Experimental data taken from publication PMC12136788.
This is one part of the list.

T1: UNK ZnF1-3 (human, UniProt Q9C0B0 31-174)
T1 sequence: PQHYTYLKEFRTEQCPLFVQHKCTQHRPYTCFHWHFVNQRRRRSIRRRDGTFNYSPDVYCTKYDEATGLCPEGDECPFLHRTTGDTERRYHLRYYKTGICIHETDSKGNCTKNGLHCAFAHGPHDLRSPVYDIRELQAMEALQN

B1: 129699038_129699158_1198_3pUTR_ENSMUSG00000026349_ENSMUST00000027587|mouse|control|control (ssRNA)
RNA: GGGAGUUCUACAGUCCGACGAUCAGCAACUUUGUCCGGCCUGUGAUGUAAUCCAGAAUGCAGUGCCAUUGAAGGUCCCUGCUGGAAGCUUAUGUACUGGCUCCCAGAGAGAGUGGCCUCCUGUUUCUGUGUGUACACUGGGUCCAACAGAGGAUUGAGCAUCA
B2: 21912454_21924271_102_5pUTR_ENSG00000158856_ENST00000443491|human|control|control (ssRNA)
RNA: GGGAGUUCUACAGUCCGACGAUCGCUGGCGCGUUCCCCCGGGCUGGCGCGUCCUCAUCCCUCGGCGGUGACUCUCCAGGCUUCAAGGGCCCAGGGCGUGGGGCAGGAGCGCAGCAGCCUCCUCGGUGACAUACACCUCCAUCCCAACAGAGGAUUGAGCAUCA
B3: chr3:95657547:95657548:-_ENSMUSG00000015748_ENSMUST00000015892|mus_mus|motif|central (ssRNA)
RNA: GGGAGUUCUACAGUCCGACGAUCUUAGACAGCGCCAUUUCGGAGAAAAUGGAGAAUGAGAGCUCCAAUGGGACAAAAAAACGGCACCUCACAAACUUCAGCCCCUGAGACGGAGCCCGAACGUUACACCGGAACCGGAAACCUCAACAGAGGAUUGAGCAUCA
B4: chr3:150289932:150289933:+_ENSG00000144895_ENST00000460851|hu_hu|hu_hu_hu_mus_False|28_108 (ssRNA)
RNA: GGGAGUUCUACAGUCCGACGAUCCUUGUAGUUUUUCACAUCCCAUACUUCCAUUUGUCCUCGAAGAUUUCCAAAUCCAGCCAGCACUAAUAUAUGUCCAUGAGGGCUAUAGUAGGCUGCGUUGCGAGGACCAGUCCCAAAGUCCAACAGAGGAUUGAGCAUCA
B5: chr7:3571038:3571039:+_ENSMUSG00000035674_ENSMUST00000076657|mus_hu|FALSE|FALSE (ssRNA)
RNA: GGGAGUUCUACAGUCCGACGAUCGGGUAGUUGUAGGGCGUGGCCUUGUUGAUCAUGACGGAGUACUUGAAGUAGGGGCUCAAUGGGGGCAGAAUUACAGCGAGGCCCCCGACGACGAAGGACACGACCAGCACUGGCUCCUUGCAACAGAGGAUUGAGCAUCA
B6: chr1:21106938:21106939:-_ENSG00000127483_ENST00000312239|hu_mus|FALSE|FALSE (ssRNA)
RNA: GGGAGUUCUACAGUCCGACGAUCUGGGAGUGCCUUAGGAUGGAUGAGUUCACCUUGAGACAUAUCAGUUGCCAUUUAGAAUAAUGUCUAGGCCUGAGUUAUGGUGAAACUCUGAAGGCUCUGCUGAUAACCACAAGGUUUGUUCAACAGAGGAUUGAGCAUCA
B7: chrX:71549400:71549401:+_ENSMUSG00000019087_ENSMUST00000019231|mus_hu|mus_mus_mus_hu_False|38_48 (ssRNA)
RNA: GGGAGUUCUACAGUCCGACGAUCGCAGUAGGAAGAGGGAAGCUCUUCAGUCCAGUGCGCUGCAGGGUGGGAAAGCAACAACACGGAACCAAUACUCCCUCAAUUCCCCCCACUGGCACAGGGUCACACAAUCUGGGUCAAAGACAACAGAGGAUUGAGCAUCA
B8: chr5:71490253:71490254:+_ENSG00000131711_ENST00000296755|hu_hu|motif|central (ssRNA)
RNA: GGGAGUUCUACAGUCCGACGAUCCUUGAUGUUUGGCUCUGGAUUUUUGAGAUUUUCAGGUACAUUGAGAAAUACAACUCCGGAGUCAGGGGAGAUGAGGUUUUUCAUCCAGUCACUAUUUGUGGUGGAGCCCUGGGACUGUUCCAACAGAGGAUUGAGCAUCA
B9: chr6:114270206:114270207:-_ENSG00000196591_ENST00000368632|hu_hu|FALSE|FALSE (ssRNA)
RNA: GGGAGUUCUACAGUCCGACGAUCUACAACUUCUACACAUUUAGCAUGACCUUUGACUGUUAGAUUGAAACAACCCAGUCUAUCACCAGAUAAUGAGUCUGCACCACACUGUAAUACCACAGCACUAGGUUGAUACAUCUCCAUCAACAGAGGAUUGAGCAUCA
B10: chr14:62207481:62207482:+_ENSG00000100644_ENST00000337138|hu_mus|motif|central (ssRNA)
RNA: GGGAGUUCUACAGUCCGACGAUCGGAACGUAACUGGAAAUCAUCAUCCAUUGGGAUAUAGGGAGCCAGCAUCUCCAAAUCGGAAUCAGUGUCCUGAGUUGAAAAUGGAUUCUUUGCCUCUGUGUCUUCAGCAAACAGUUUUUCCAACAGAGGAUUGAGCAUCA
B11: 134836930_134837572_2942_CDS_ENSMUSG00000023079_ENSMUST00000100650|mouse|control|control (ssRNA)
RNA: GGGAGUUCUACAGUCCGACGAUCGAGGCCCUUCACCUCCACGGCAUCUGGGCUGUCCCGGAUCAGUUUGUAAGGGACCAGCACAGGCCGAUUCAGUCCCAGGGCCUCACCGUAUUUCUCAUUGAAGAGCUCCUUCACCUGCUCCAACAGAGGAUUGAGCAUCA
B12: chr12:13295503:13295504:+_ENSMUSG00000020576_ENSMUST00000042953|mus_mus|motif|central (ssRNA)
RNA: GGGAGUUCUACAGUCCGACGAUCUCCCCGGUAAUUGAUGACCAAGAGCUCUGCAGACCACUGUGCACUGGCUUUGUAUUCGGAAAAUACCAACCCAGCAAUGGCGUAGCUUAAGUCCCCAGCAAAGACAGAUGCCGGGGCAAUCAACAGAGGAUUGAGCAUCA
B13: 71845025_71845145_1816_CDS_ENSG00000119139_ENST00000377245|human|control|control (ssRNA)
RNA: GGGAGUUCUACAGUCCGACGAUCCAGAAUCUGGUCUCCUUCUUGAAGGCCCUCCUGCUCCGCCGAGGUCCCUUCUUGAAUGCCAGCAACAAAUAUCCCGACAUCAUUGCCACCAGCCAACCGGAGGCCCACGCUGUCUCCCUUCAACAGAGGAUUGAGCAUCA
B14: chr5:113341905:113341906:-_ENSMUSG00000042249_ENSMUST00000065167|mus_mus|motif|central (ssRNA)
RNA: GGGAGUUCUACAGUCCGACGAUCAUGGGAACUCUCAAACAGCCAUGUAUCAUAAACCCAUCUGGCUCCUCCUCCCACCCGGUGGAUCCAGGACACACCCUAGCCACAUGCCAGGGUGGAAAGAUGGCCUUUGAGAUGGCGCUACAACAGAGGAUUGAGCAUCA

These binders were tested against T1, UNK ZnF1-3 (assay: nsRBNS (natural sequence RNA bind-n-seq); RBNS binding buffer (assumed for nsRBNS): 25 mM Tris pH 7.5, 150 mM KCl, 3 mM MgCl2, 0.01% Triton X-100, 500 ug/ml BSA, 20 U/ml SUPERase-In, 4 C; UNK is unkempt and MSI1 is Musashi-1; names of the RNAs are library labels; protein concentration not given here; high values mean tight binding).
For B1, the binding signal was 0.344 enrichment R.
Work on B2 yielded a binding signal of 0.698 enrichment R.
For B3, the binding signal was 1.13 enrichment R.
With B4 the binding signal was 0.945 enrichment R.
Work on B5 yielded a binding signal of 1.24 enrichment R.
With B6 the binding signal was 0.501 enrichment R.
B7 gave a binding signal of 1.57 enrichment R.
B8 showed a binding signal of 0.663 enrichment R.
In the case of B9, the binding signal is reported as 1.05 enrichment R.
Work on B10 yielded a binding signal of 1.13 enrichment R.
B11 was tested, and the binding signal was 0.383 enrichment R.
B12 gave a binding signal of 0.841 enrichment R.
For B13, the binding signal was 0.825 enrichment R.
B14 gave a binding signal of 0.192 enrichment R.
